The record followed here is patent US12583836B2 (Anaxis Pharma Pty Ltd, priority 2020, dated 2026).

The test system of assay [1] is U937 human histiocytic leukemia cell line. In words: Inhibition of TSQ induced necroptosis, 384 well plate format (CellTitre-Glo). The settings on record: Homo sapiens, U-937; U937 cells, TSQ cocktail (TNF, Smac mimetic, Q-VD-OPh), CelltiterGlo; read-out: Inhibition of TSQ-induced necroptosis (IC50 cell-based assay). The procedure:
[…] ASSAY: Screening compounds for inhibition of TSQ induced necroptosis, 384 well plate format.
Cell Line ID: U937 human histiocytic leukemia cell line.
Cell Concentration (cells/well): Final cell density is 20000 cells per well.
Cell growth medium: HT-RPMI medium+7.4% Fetal Bovine Serum (FBS). Cells are cultured in Corning 150 cm^2 tissue culture flasks with vented caps at 37° C./5% CO2.
Incubation: Plates were incubated at 37° C./5% CO2 in a humidified incubator for 48 hours following addition of compounds and death stimuli (TSQ cocktail).
Compound concentration: 36 μM starting concentration, 1:3 dilution, 10 point
DMSO final concentration (% v/v): 0.3%.
Compounds in TSQ cocktail (T: TNF; S: Smac mimetic; Q: Q-VD-OPh) and their final concentrations:
hTNF-Fc (100 ng/ml)—produced by standard procedures as shown in Bossen et al., J Biol Chem, 2006, 281(20), 13964-13971.
Compound A (500 nM)—Smac mimetic, Tetralogic and SYNthesis med chem
Q-VD-OPh (10 μM)—MP Biomedicals
The cellular assay was carried out according to the following steps: • 1. Each well was prepared by sequential addition of: • a. DMSO (control; columns 1-2 and 23-24) or compound in DMSO—addition was performed using acoustic transfer of nl volumes of stock compound to give final test concentrations of 36, 12, 4, 1.3, 0.44, 0.148, 0.049, 0.016, 0.005 and 0.002 μM. All wells were backfilled with DMSO to a final total volume in the well of 100 nl. • b. Following compound/DMSO addition in step (a), 40 μL of cell suspension (5×10^5 cells/mL) was added to provide a final cell concentration of 20,000 cells per well, and • c. Following cell addition in step (b), 10 μL of 5×TSQ cocktail (except to positive controls; columns 1 and 23) was added to each well. • 2. After 48 hours, plate was removed from the 37° C. incubator and equilibrated to room temperature for 45 minutes. • 3. 15 μL of room temperature CellTitre-Glo2™ (Promega™) was added to each well. • 4. Shook plates for 2 minutes (˜600 rpm) and incubated at room temperature for 15 minutes to allow signal to stabilise. • 5. Read luminescence readout on a plate reader. Analysis:
Percent viability was calculated for each compound according to equation (2):
[formula] • wherein • RawData is the readout of any cell containing a compound of the invention • TA is the total activity provided by the luminescence readout from DMSO only wells (columns 2 and 24)=100% viability • NSA is the non-specific activity provided by DMSO+TSQ wells (columns 1 and 23)=0% viability
Curve fitting: 10-point titration curves are fitted with the 4-parameter logistic nonlinear regression model and the IC50 reported is the inflection point of the curve.
Analysis: Data was loaded into Dotmatics™ and visualised using the Tibco® Spotfire™ software. 10 points titration curves were fitted with the 4-parameter logistic nonlinear regression model and the IC50 reported reflect the inflection point of the curve for curve fitting.
Assay involving the TSQ cocktail (T: TNF; S: Smac mimetic; Q: Q-VD-OPh): TSQ treatment ensures that cells specifically undergo necroptotic cell death. TNF activates the TNF receptor, Smac mimetic directs the signal away from proinflammatory signaling and toward the RIP1/RIP3-mediated cell death pathways, and Q-VD-OPh ensures that the apoptotic response is blocked leaving only the programmed necrosis response. The compounds' activity (solution in DMSO) tested in this TSQ-induced assay was evaluated by determining the number of viable cells in culture by measuring the amount of ATP present as measured by CelltiterGlo.
(In general: In ATP-based viability assays light output follows the ATP content of the culture.)

Assay [2] deals with U937 cells. In words: Counter screen: cell viability without the TSQ cocktail (CelltiterGlo). Set-up: species or system human. The conditions noted are these: Homo sapiens, U-937, cell viability by CelltiterGlo, read-out: Off-target effect (IC50 cell-based assay). The procedure: Counter screen: In parallel, all compounds were tested for their ability to affect cell viability. The same U937 cells were treated with compound in DMSO without the TSQ cocktail. This counter screen enabled evaluation of off-target effects. In this case, cell viability was measured by CelltiterGlo.
Background: A counterscreen serves to expose hits that act by an unwanted route or on another target.

The structures appear in SMILES notation. A value given as a limit tells only on which side of the number the result lay.

As usually defined, the IC50 is the concentration that gives 50% inhibition. With `C[C@H](Oc1cc(-c2n[nH]c(Nc3cc(C(F)F)on3)c2C(N)=O)ccc1NS(=O)(=O)C(F)F)c1ccc(F)cc1` [Compound 314, (S)-5-((5-(difluoromethyl)isoxazol-3-yl)amino)-3-(4-((difluoromethyl)sulfonamido)-3-(1-(4-fluorophenyl)ethoxy)phenyl)-1H-pyrazole-4-carboxamide], the IC50 in assay [1] is 0.01 to 1 µM; in assay [2] it was over 30 µM.

Regarding `CCS(=O)(=O)Nc1ccc(-c2n[nH]c(Nc3ccc(C(F)(F)F)cn3)c2C(N)=O)cc1` [Compound 93, 3-(4-(ethylsulfonamido)phenyl)-5-((5-(trifluoromethyl)pyridin-2-yl)amino)-1H-pyrazole-4-carboxamide], the IC50 in assay [1] is 1 to 30 µM; in assay [2], over 30 µM.

On to `CCS(=O)(=O)Nc1ccc(-c2n[nH]c(Nc3cnccn3)c2C(N)=O)cc1OCc1ccc(Cl)cc1` [Compound 42, 3-(3-((4-chlorobenzyl)oxy)-4-(ethylsulfonamido)phenyl)-5-(pyrazin-2-ylamino)-1H-pyrazole-4-carboxamide], for which the IC50 in assay [1] was 0.01 to 1 µM; in assay [2], over 30 µM.

For `CCS(=O)(=O)Nc1ccc(-c2n[nH]c(Nc3cnccn3)c2C(N)=O)cc1OCc1ccc(Cl)cn1` [Compound 242, 3-{3-[(5-chloropyridin-2-yl)methoxy]-4-ethanesulfonamidophenyl}-5-[(pyrazin-2-yl)amino]-1H-pyrazole-4-carboxamide], the IC50 in assay [1] is 0.01 to 1 µM; in assay [2], over 30 µM.

In the case of `NC(=O)c1c(-c2ccc(NS(=O)(=O)CC(F)(F)F)c(OCc3ccc(F)cc3)c2)n[nH]c1Nc1ccc(C(F)(F)F)nc1` [Compound 176, 3-(3-((4-fluorobenzyl)oxy)-4-((2,2,2-trifluoroethyl)sulfonamido)phenyl)-5-((6-(trifluoromethyl)pyridine-3-yl)amino)-1H-pyrazole-4-carboxamide], the IC50 in assay [1] was 0.01 to 1 µM; in assay [2], 1 to 30 µM.

Regarding `NC(=O)c1c(-c2ccc(NS(=O)(=O)CC(F)(F)F)cc2)n[nH]c1Nc1ccc(C(F)(F)F)cn1` [Compound 153, 3-(4-((2,2,2-trifluoroethyl)sulfonamido)phenyl)-5-((5-(trifluoromethyl)pyridine-2-yl)amino)-1H-pyrazole-4-carboxamide], the IC50 in assay [1] was 0.01 to 1 µM; in assay [2], over 30 µM.
